Consider 37 compounds from the supplement of paper PMC9446081.

Out of some 39,000 compounds screened, about 220 (0.56%) showed activity. This is one part of the list.
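Note: static incubation at 37 °C against the wild-type strain, values averaged over two biological replicates.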

This assay relates to Escherichia coli K-12 BW25113. The assay is described as follows: relative growth (OD600 normalised to plate interquartile mean) (fraction); higher = less growth inhibition, active = 0.2 or less. As to conditions: 50 µM; LB; incubation time: overnight (16-24 h).
Turning to `C[C@@H]1CN([C@@H](C)CO)C(=O)Cc2cc(NC(=O)C3CC3)ccc2O[C@@H]1CN(C)S(=O)(=O)c1cccs1`, the relative growth is inactive: 1.04. As for `C[C@@H]1CCCCO[C@H](CN(C)C(=O)C2CCCCC2)[C@@H](C)CN([C@H](C)CO)C(=O)c2cc(NC(=O)Nc3ccc(C(F)(F)F)cc3)ccc2O1`, the figure is inactive: 0.999; as for `CCNC(=O)[C@H]1[C@H](CO)[C@H]2Cn3c(ccc(-c4cccc(OC)c4)c3=O)[C@H]2N1S(C)(=O)=O`, inactive: 1.02. Take `C[C@H]1CCCCO[C@H](CN(C)Cc2ccccc2)[C@@H](C)CN([C@@H](C)CO)C(=O)c2cc(NC(=O)Nc3ccc4c(c3)OCO4)ccc2O1`: the relative growth was inactive: 0.986. For `C[C@@H]1CCCCO[C@H](CN(C)C(=O)NC2CCCCC2)[C@H](C)CN([C@H](C)CO)C(=O)c2cc(NS(=O)(=O)c3ccc(Cl)cc3)ccc2O1`, the relative growth is inactive: 1.02.

Turning to `CC(C)Cc1ccc(/C=C/C=O)cc1`, the relative growth is inactive: 0.975.

`COc1ccc(S(=O)(=O)N(C)C[C@@H]2Oc3c(NS(=O)(=O)c4ccc(C)cc4)cccc3C(=O)N([C@@H](C)CO)C[C@@H]2C)cc1`: the relative growth is inactive: 1.02. For the compound `C[C@@H]1CN([C@H](C)CO)C(=O)c2cc(NC(=O)Cc3ccccc3)ccc2O[C@@H]1CN(C)Cc1ccc(-c2ccccc2)cc1`, the relative growth is inactive: 0.961. The value for `O=C(CCCCCC(=O)N/N=C/[C@H](O)[C@@H](O)[C@H](O)[C@H](O)CO[C@H]1O[C@H](CO)[C@H](O)[C@H](O)[C@H]1O)NO` was inactive: 1; that for `O=S1(=O)C[C@H](NC[C@H]2C[C@@H]3C=C[C@H]2C3)[C@@H](O)C1` was inactive: 1.03; that for `C[C@H](CO)N1C[C@H](C)[C@H](CN(C)Cc2ccc(Cl)c(Cl)c2)Oc2ccc(NC(=O)NC3CCCCC3)cc2CC1=O` was inactive: 0.999. The value for `C[C@H](CO)N1C[C@H](C)[C@@H](CN(C)Cc2ccc3c(c2)OCO3)Oc2ccc(NC(=O)Nc3cccc4ccccc34)cc2CC1=O` was inactive: 0.978.

With `CN(C)CC(=O)N[C@H]1CC[C@H](CCn2cc(CN(C)C)nn2)O[C@H]1CO`, the relative growth is inactive: 0.995. Consider `C[C@H](CO)N1C[C@H](C)[C@@H](CN(C)S(C)(=O)=O)Oc2c(NC(=O)c3nc4ccccc4s3)cccc2C1=O`, for which the relative growth was inactive: 0.988.

Turning to `COCC(=O)Nc1ccc2c(c1)C(=O)N(C)C[C@H](OC)[C@H](C)CN(Cc1cccc(F)c1)[C@@H](C)CO2`, the relative growth was inactive: 1.02. Regarding `CC(CCC(=O)O)C1CCC2C3CCC4CCCCC4(C)C3CCC12C` (configuration not stated), the relative growth is inactive: 1.07. Take `Cc1cc(C)n2nc(SCC(=O)O)nc2n1`: the relative growth is inactive: 0.954. As to `C=C(CC[C@@H](C)[C@H]1CC[C@@]2(C)C3=C(C[C@H](O)[C@]12C)[C@@]1(C)CC[C@@H](OC(=O)CC(=O)O)C(C)(C)[C@@H]1CC3)[C@@H](C)C(=O)O`, the relative growth is inactive: 0.89. As for `COc1ccc(S(=O)(=O)N(C)C[C@@H]2Oc3c(NC(=O)c4cnccn4)cccc3C(=O)N([C@@H](C)CO)C[C@@H]2C)cc1`, the figure is inactive: 0.977; as for `C=CCOC(=O)[C@H]1[C@@H]2C(=O)O[C@@H](c3ccccc3)[C@@H](c3ccccc3)N2[C@@H](c2ccc(OCCOC(=O)[C@H]3C[C@H]4C(=O)N[C@@H](Cc5ccccc5)C(=O)N4[C@H]3c3cccc(OCCO)c3)cc2)[C@]12C(=O)Nc1ccc(I)cc12`, inactive: 1.04; as for `C[C@@H]1CN([C@@H](C)CO)C(=O)c2cc(NS(=O)(=O)c3ccccc3)ccc2O[C@H]1CN(C)S(=O)(=O)c1ccc(F)cc1`, inactive: 1.01.

On to `C[C@@H]1CN([C@@H](C)CO)C(=O)c2cccc(NC(=O)Nc3cccc4ccccc34)c2O[C@H]1CN(C)C(=O)Nc1ccc(F)cc1`, for which the relative growth is inactive: 1.

For the compound `C[C@@H]1CN([C@@H](C)CO)C(=O)c2cc(NC(=O)Nc3ccc(C(F)(F)F)cc3)ccc2O[C@@H]1CN(C)C(=O)Nc1ccc(C(F)(F)F)cc1`, the relative growth is inactive: 0.998. On to `COc1ccc(NC(=O)N(C)C[C@H]2OCCCC[C@@H](C)Oc3ccc(NC(=O)NC4CCCCC4)cc3C(=O)N([C@H](C)CO)C[C@H]2C)cc1`, for which the relative growth was inactive: 1.02. Take `CN(C)CCCNC(=O)C1CCNCC1`: the relative growth is inactive: 0.999. On to `CC(C)NC(=O)Nc1ccc2c(c1)C(=O)N([C@@H](C)CO)C[C@@H](C)[C@@H](CN(C)S(C)(=O)=O)OCCCC[C@@H](C)O2`, for which the relative growth is inactive: 1. On to `COCC(=O)N1CC(C)(C)c2cc(-c3csc(NC(=O)c4ccc(F)c(OC(F)(F)F)c4)n3)ccc21`, for which the relative growth was inactive: 1.

For the compound `COc1ccc(S(=O)(=O)Nc2ccc3c(c2)CC(=O)N([C@@H](C)CO)C[C@H](C)[C@H](CN(C)C)O3)cc1`, the relative growth was inactive: 0.989. `C[C@H](O)C#Cc1ccc2c(c1)O[C@@H](CN(C)C)[C@H](C)CN([C@@H](C)CO)S2(=O)=O`: the relative growth is inactive: 0.987. In the case of `C[C@@H]1CN([C@H](C)CO)C(=O)Cc2cc(NC(=O)Cc3ccccc3)ccc2O[C@H]1CN(C)S(=O)(=O)c1ccccc1`, the relative growth is inactive: 0.983.

For `COc1ccc(CN(C)C[C@@H]2Oc3ccc(NS(C)(=O)=O)cc3CC(=O)N([C@@H](C)CO)C[C@@H]2C)cc1`, the relative growth is inactive: 0.984.

As for `C[C@H]1CN([C@@H](C)CO)C(=O)c2cccc(NS(C)(=O)=O)c2O[C@@H]1CN(C)Cc1ccc2c(c1)OCO2`, the relative growth was inactive: 1.04. For the compound `COc1cc(O)c2c(=O)c3cc(OC)c(OC)cc3oc2c1`, the relative growth was inactive: 1.05. For the compound `CCS(=O)(=O)Nc1ccc2c(c1)C(=O)N(C)C[C@@H](OC)[C@H](C)CN(CCC(F)(F)F)[C@@H](C)CO2`, the relative growth is inactive: 0.971. In the case of `Cc1noc(C)c1S(=O)(=O)Nc1ccc2c(c1)C(=O)N([C@@H](C)CO)C[C@H](C)[C@@H](CN(C)C(=O)Nc1ccc(C(F)(F)F)cc1)OCCCC[C@@H](C)O2`, the relative growth is inactive: 1.03. `Cc1noc(C)c1NC(=O)Nc1ccc2c(c1)C(=O)N([C@H](C)CO)C[C@H](C)[C@H](CN(C)C(=O)Nc1c(C)noc1C)OCCCC[C@H](C)O2`: the relative growth was inactive: 0.999. Turning to `O=C(OCc1cccc(O)c1O[C@@H]1O[C@H](CO)[C@@H](O)[C@H](O)[C@H]1O)[C@]1(O)C(=O)[C@@H]2C=C[C@H]1c1c2ccc(O)c1O`, the relative growth was inactive: 1.
